SMILES strings stand for the structures. Out of some 340,000 compounds screened, about 6,900 (2%) were called active. No stated cut-off is given here; in the data, active means inhibition above about 30%; inactive means below that, where a call was filed. Only a part is listed here, and it is no random draw. Where no call is shown, the source filed none.

This passage reports inhibition results from PubChem BioAssay AID485344 (National Center for Advancing Translational Sciences (NCATS), 2010).

The target in this experiment is D(2) dopamine receptor (Homo sapiens) (UniProt P14416). The experiment can be described thus: HTS Assay for Allosteric Antagonists of the Human D2 Dopamine Receptor: Primary Screen for Antagonists. Further: 0% is about no effect. The conditions noted are these: HEK293 TREx D2 cells, calcium flux, dopamine EC80; at 10 µM; stronger effect = higher value. The method in brief: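 Inhibition of EC80 dopamine-driven calcium flux, recorded kinetically, defines activity here; cells are a tetracycline-induced HEK293 T-REx line expressing force-coupled D2.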
UniProt P14416, sequence (P14416 whole entry, looked up): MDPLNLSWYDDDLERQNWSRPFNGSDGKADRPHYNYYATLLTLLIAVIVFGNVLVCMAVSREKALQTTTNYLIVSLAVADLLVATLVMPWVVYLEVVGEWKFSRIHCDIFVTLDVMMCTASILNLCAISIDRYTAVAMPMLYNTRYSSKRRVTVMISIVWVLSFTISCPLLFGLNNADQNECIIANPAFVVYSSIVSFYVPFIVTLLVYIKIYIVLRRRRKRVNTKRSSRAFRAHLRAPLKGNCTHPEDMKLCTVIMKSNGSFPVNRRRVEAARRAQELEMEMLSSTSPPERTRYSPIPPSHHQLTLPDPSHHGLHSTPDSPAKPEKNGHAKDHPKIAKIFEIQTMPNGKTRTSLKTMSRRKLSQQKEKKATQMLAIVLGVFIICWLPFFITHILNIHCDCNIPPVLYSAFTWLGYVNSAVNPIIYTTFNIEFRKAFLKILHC
On to `Cc1cccc(Nc2ncnc3onc(-c4ccc(Cl)cc4)c23)c1C`, for which the inhibition worked out at 15.5%.
Next, `Cc1ccc2oc3c(c(=O)c2c1)C(c1ccc(O)cc1)N(CCCN(C)C)C3=O` (stereo unspecified): 3.19%.
Next, `Cc1ccc(-n2c(=O)c3cccnc3n2CC(=O)NCc2ccc(Cl)cc2)cc1`: -16.2%; `COC(=O)c1ccc([C@@H]2Nc3c(OC)ccc(C)c3[C@@H]3C=CC[C@@H]32)cc1`: -23.7%.
As for `Nc1c(C(=O)Nc2ccc(F)cc2)sc2nc(-c3cccs3)cc(C(F)(F)F)c12`, the inhibition was -17%.
Next, `Cc1cc(F)ccc1NC(=O)C(c1ccccc1)N1Cc2ccccc2C1=O` (stereo unspecified): 13.6%; `COc1ccc(C(=O)Nc2cccc(C(=O)OCc3cc(=O)n4nc(C5CC5)sc4n3)c2)cc1`: 2.84%; `O=C(Cc1ccccc1)Nc1sc2c(c1C(=O)Nc1ccccc1Cl)CCCCC2`: 3.02%.
Next, `CCCN1CCN(c2nc(-c3cccs3)nc3ccccc23)CC1`: active: 36.6%; `CC(C)c1ccc(NC(=O)CSC2=Nc3ccccc3C3=NC(CCC(=O)NC4CCCCC4)C(=O)N23)cc1` (stereo unspecified): -7.56%; `Cn1cccc1CNC(=O)Nc1ccc(Cl)cc1`: active: 30.6%.
The value for `COC(=O)c1cc(Nc2nc3ccccc3nc2NS(=O)(=O)c2ccc(C)cc2)ccc1Cl` was 1.8%; that for `COc1ccc2c(c1)CCc1c(C(=O)Nc3cc(OC)c(Cl)cc3OC)noc1-2` was 21.3%.
Regarding `Oc1ccccc1N1CCN(C(c2ccccc2)c2ccccc2)CC1`, the inhibition was active: 30.3%.
Next, `O=C(Cn1c(=O)n(Cc2nc(-c3ccccc3)no2)c(=O)c2cc3c(cc21)OCO3)Nc1ccccc1`: 11.3%.
Next, `O=C(Nc1ccc(F)cc1)N1CCn2c(nc3ccccc32)C1`: active: 33.4%.
The value for `CCOc1ccc(-n2c(SCC(=O)Nc3cc(C)ccc3C)nc3c([nH]c4ccccc43)c2=O)cc1` was 5.91%.
Turning to `CCC(C)n1c(=O)c2sccc2n2c(CCCC(=O)N3CCN(c4ccccc4)CC3)nnc12` (stereo unspecified), the inhibition was -13.2%.
On to `COc1cccc(Cc2nc3ccccc3nc2SCC(=O)Nc2cccc(C)c2)c1`, for which the inhibition is 15.5%.
Next, `Cc1ccc(Cn2cc(S(=O)(=O)c3cccc(C)c3)c(=O)c3cc(F)c(N4CCOCC4)cc32)cc1`: -10.8%.
Next, `O=C(Nc1cc(-c2ccccc2)sc1C(=O)O)c1cccc(F)c1`: 20.6%.
The value for `COc1ccccc1-c1cc(C(=O)NCCCn2ccnc2)no1` was active: 45.9%; that for `COc1ccc(CNC(=O)c2sc3nc4n(c(=O)c3c2C)CCCC4)cc1` was -22.5%; that for `OC(COCC1COc2ccccc2O1)CN1CCN(c2ccccn2)CC1` (stereo unspecified) was active: 82.8%.
On to `CCOc1cc(C2c3c(-c4cc(C)ccc4O)n[nH]c3C(=O)N2CCCOC(C)C)ccc1O` (stereo unspecified), for which the inhibition is -1.59%.
Next, `CCn1ccc2cc(S(=O)(=O)N3CCCN(C(=O)Nc4ccccc4F)CC3)ccc21`: 21.7%.
`COc1cccc(Cn2c(SCC(=O)N3CCN(c4ccc(F)cc4)CC3)nc3ccccc32)c1`: the inhibition is -4.71%.
The value for `O=C(CSc1nnc(-c2ccc3c(c2)OCO3)o1)Oc1ccccc1` was -4.81%.
As for `O=C(COC(=O)c1cc(-c2cccs2)nc2ccccc12)c1ccc(F)cc1`, the inhibition stood at 10.6%.
For `CCOc1ccc(-n2c(=S)sc3c(=O)[nH]c(SCC(=O)NCc4ccco4)nc32)cc1`, the inhibition was active: 45.2%.
Regarding `Cc1ccc(CN(C(=O)c2ccc(C(C)(C)C)cc2)c2ccccn2)o1`, the inhibition was 9.51%.
The value for `CC(C)CC(=O)Nc1ccc2nc(SCC(=O)N3CCc4ccccc43)sc2c1` was 12.5%; that for `CCOc1ccccc1CNC(=O)c1sc2ncccc2c1-n1cccc1` was -13%; that for `CCOc1ccc(-n2cc(-c3ccccc3)c3c(Nc4cccc(F)c4)ncnc32)cc1` was -13.6%.
Next, `O=C(O)CCS(=O)(=O)c1ccccc1Cl`: active: 38.8%; `COc1cccc(C(=O)Nc2c(C(=O)Nc3ccc(F)cc3)oc3ccccc23)c1OC`: -3.4%.
Next, `CCOc1ccc(C(=O)Nc2nnc(SCc3cc(=O)n4ccccc4n3)s2)cc1`: -16.4%; `CCN(Cc1ccccc1)S(=O)(=O)c1cc(Br)cc2c1N(C(=O)C1CC1)CC2`: -8.25%; `Cc1ccc(NC(=O)c2cnc(N3CCCC3)nc2C)cc1F`: -13.2%.
As for `Cc1ccc2onc(CC(=O)N3CCN(c4cccc(Cl)c4)CC3)c2c1`, the inhibition is 4.4%.
The value for `COc1ccc(NC(=O)Cn2c(=O)oc3cc(S(=O)(=O)N4CCCCCC4)ccc32)cc1OC` was 9.11%; that for `Cc1cc(F)ccc1NC(=O)Cn1cc(S(=O)(=O)NC(C)C)c(S(=O)(=O)NC(C)C)c1` was -10.9%; that for `Cc1ccc(CN(C(=O)COc2ccccc2[N+](=O)[O-])c2ccccn2)o1` was 8.52%.
Next, `O=C(Cn1nnc(-c2ccccc2NC(=O)c2ccccc2F)n1)NCc1ccco1`: active: 32.5%; `O=c1oc2ccccc2cc1-c1cn2cc(Cc3cc(Cl)ccc3Cl)sc2n1`: 0.423%.
Consider `COc1ccc(C2c3c(-c4ccccc4)n[nH]c3C(=O)N2c2ccc(C(=O)O)cc2)cc1` (stereo unspecified), for which the inhibition was active: 39%.
Next, `COc1ccc(NC(=O)C2CCCN(S(=O)(=O)c3ccc(F)cc3)C2)cc1` (stereo unspecified): -2.21%.
The value for `CCN(CC)S(=O)(=O)c1ccc2c(c1)N(CC(=O)Nc1cccc(C#N)c1)C(=O)CO2` was -3.55%.
The value for `FC(F)(F)c1cc(-c2ccccc2)nc2cc(-c3ccccc3)nn12` was 8.83%; that for `CCc1nnc(NC(=O)CSc2nc3c([nH]c4ccccc43)c(=O)n2-c2ccc(Cl)cc2)s1` was 9.79%.
As for `COC(=O)c1ccc(NC(=O)C(=O)NCCc2csc(-c3ccc(F)cc3)n2)cc1`, the inhibition was -0.71%.
Next, `Cc1ccc(O)c(NC(=O)C2=CC(c3ccco3)=NS(=O)(=O)N2C)c1`: 25.3%; `O=C(CSc1ncccc1C(=O)Oc1ccccc1Cl)Nc1ccc(C(F)(F)F)cc1Cl`: 5.64%.
The value for `Cc1csc2nc(COC(=O)CNC(=O)c3ccccc3)cc(=O)n12` was -5.18%.
The value for `O=C(c1ccc(Cl)cc1)n1nc(-c2cccnc2)nc1NCc1ccc(F)cc1` was 8.68%; that for `CCOC(=O)c1cccc(NC(=O)CCS(=O)(=O)c2ccc3c(c2)CCN3C(=O)CC)c1` was -19.4%; that for `CC(=O)c1cccc(NC(=O)c2ccc3nc(Cc4ccccc4)oc3c2)c1` was -5.26%.
Take `CCn1c(=O)c2sccc2n2c(CCCC(=O)N3CCN(c4ccc(F)cc4)CC3)nnc12`: the inhibition is 1.5%.
As for `CCCCOc1ccc(C(=O)N(Cc2ccccc2)C2CCS(=O)(=O)C2)cc1` (stereo unspecified), the inhibition is 0.446%.
The value for `CCN(CC)c1ccc2cc(-c3nc4sc5c(c4c(=O)[nH]3)CCC(C(C)(C)C)C5)c(=O)oc2c1` (stereo unspecified) was -13.9%; that for `COc1cccc(NC(=O)c2c(C)oc3nc(C)nc(N4CCCC4)c23)c1` was 6.69%.
For `CCN1CCN(Cc2c(O)ccc3oc(C)c(C(=O)Nc4cccc(C(F)(F)F)c4)c23)CC1`, the inhibition is -12.1%.
Next, `Cc1ccc2c(c1)N(C(=O)CCC(=O)NCc1cccc(F)c1)CC(C)O2` (stereo unspecified): -18.9%; `COc1ccc(CC(=O)Nc2nc3c(s2)CCCC3)cc1`: -7.21%; `CCC(=O)N1CCc2cc(S(=O)(=O)CCC(=O)N3CCN(c4cccc(C)c4C)CC3)ccc21`: 0.391%.
Next, `Cc1cccc(C)c1NC(=O)c1cc(S(=O)(=O)N2CCc3ccccc3C2)ccc1F`: -28.2%; `CCCN1Cc2cccc(C(=O)Nc3cc(Cl)ccc3C)c2C1=O`: 3.76%; `O=C(CSc1nccn1Cc1ccc(F)cc1)NCc1ccco1`: -11.3%.
Regarding `Cc1cc(C)c2c(c1)c(C)cc1nnc(SCC(=O)c3ccccc3)n12`, the inhibition is 8.6%.
Regarding `Cc1ccc(C)c(NC(=O)C(CC(C)C)N2Cc3ccccc3C2=O)c1` (stereo unspecified), the inhibition amounted to 0.546%.
The value for `O=C(CN1C(=O)c2ccccc2Sc2ccc(C(=O)N3CCOCC3)cc21)Nc1ccc(Cl)cc1F` was 9.41%.
Take `CC(C)(C)c1ccc(C(=O)Nc2ccc(-c3nc4ccccc4o3)c(O)c2)cc1`: the inhibition turned out to be 4.91%.
On to `Cc1cccc(NC(=O)c2sc3ncnc(N(C)C4CCCCC4)c3c2C)c1C`, for which the inhibition is 11.9%.
The value for `CCOc1ccc(-c2nnc(SCC(=O)Nc3cccc(C#N)c3)o2)cc1` was 8.05%; that for `COc1cccc(NC(=O)Nc2ccc3c(c2)N(C)C(=O)c2ccccc2S3)c1` was -2.56%.
Next, `CC1CCN(C(=O)Cn2c(-c3cccs3)cc3cc(Cl)ccc32)CC1`: -1.79%; `Cc1ccc(NC(=O)COc2ccc(-n3cnnn3)cc2)cc1C`: active: 41.5%; `COc1ccc(OCCn2c(NC(=O)c3ccc(OC)cc3)nc3ccccc32)cc1`: 0.681%.
Take `CNC(=O)C1CCC(Cn2c(=O)c3sccc3n(CC(=O)N3CCCC(C)C3)c2=O)CC1` (stereo unspecified): the inhibition is -0.966%.
Next, `COCCCNC(=O)C1CCN(Cc2cc3ccccc3n2Cc2cccc(C)c2)CC1`: 10.1%; `COc1ccc(-c2nnc(SCC(=O)N3CCC(C)CC3)o2)cc1`: 6.94%; `COc1ccccc1CNC(=O)CSc1ncc(S(=O)(=O)c2ccc(C)c(Cl)c2)c(=O)[nH]1`: 19.6%.
In the case of `CCN(CC)S(=O)(=O)c1ccc(NC(=O)Cn2c(=O)sc3ccccc32)cc1`, the inhibition is active: 43%.
Next, `Cc1cccc(CCNC(=O)c2cc(S(=O)(=O)N3CCCCC3)c[nH]2)c1`: -12.4%.
Turning to `Cc1cccc(N2CCN(C(=O)c3ccc4c(c3)N(Cc3ccccc3)C(=O)c3ccccc3S4(=O)=O)CC2C)c1` (stereo unspecified), the inhibition came out at 24.8%.
For `Cc1c2cnn(-c3ccccc3)c(=O)c2c(C)n1C(C)C(=O)Nc1ccccc1C(F)(F)F` (stereo unspecified), the inhibition was -2.15%.
Take `Cc1ccc(C)c(NC(c2ccccc2)c2nnc(-c3ccccc3F)o2)c1` (stereo unspecified): the inhibition was -25.3%.
The value for `CCOC(=O)CC(NC(=O)Cn1nnc(-c2ccccc2Cl)n1)c1ccc(OC)cc1` (stereo unspecified) was -28.1%.
The value for `CCOC(=O)c1[nH]c(=O)[nH]c1CSc1nc(C)cc(C)n1` was active: 31.9%; that for `COc1ccc(CCN2C(=O)N(c3cccc(C)c3)C(=O)C2CC(=O)Nc2ccccc2)cc1OC` (stereo unspecified) was -17.9%.
As for `Clc1ccc(CCNc2nc3cc(Cl)c(Cl)cc3n3cnnc23)cc1`, the inhibition came out at 1.35%.
Turning to `O=S(=O)(c1ccc(F)cc1)N1CCC(Oc2cccc(C(F)(F)F)c2)CC1`, the inhibition was 2.6%.
The value for `COc1c(Cl)cc(Cl)cc1C(=O)Nc1cccc(-c2nc3ccccc3o2)c1C` was 2.84%; that for `CCn1c(COc2ccc(Cl)cc2Cl)nc2ccccc21` was 0.948%; that for `COc1ccc(S(=O)(=O)N2Cc3ccccc3CC2C(=O)Nc2ccc(C)cc2)cc1OC` (stereo unspecified) was 13%.
Next, `COc1ccc(CCNC(=O)CCCn2c(=O)c3ccccc3n(Cc3ccccc3)c2=O)cc1OC`: 20.4%.
